Measurements as given in the supplement of paper PMC3334620.
The full ranking holds about 33,000 sequences; the median of “E-score (-0.5 to 0.5)” is about -0.01, and the highest 2% start at about 0.26. This is one part of the list.

Biological target: Ste12 (UniProt P13574)
Assay: PBM E-score (8-mer binding enrichment) (E-score (-0.5 to 0.5)); higher = stronger / more preferred TF binding; most listed sequences are background and not binding sites
Conditions: protein concentration: 200 nM; construct: GST-DNA-binding domain
Procedure: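 Universal 'all 10-mer' protein binding microarrays (Agilent AMADID 015681) probed with GST-tagged S. cerevisiae TFs (full-length or DBD) made by in vitro transcription/translation (PURExpress), about 100-200 nM. Bound TF was detected with fluorescent anti-GST. Each ungapped 8-mer (which stands for itself and its reverse complement) is scored by the PBM enrichment score (E-score), a modified Wilcoxon-Mann-Whitney statistic from -0.5 to +0.5, computed with the Universal PBM Analysis Suite. Scale: above 0.35 generally sequence-specific binding.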

Sequence	PBM E-score
CCGTCTAA	-0.0731
GTTGAAAA	0.206
AAGGCGAG	-0.186
CAGTTCAG	-0.0105
AAAATTAC	0.188
ATGGCCAC	-0.235
TAAGAGGA	-0.127
ATGAAAAT	0.166
CAGATTTC	0.00467
CAAGTCAC	0.0321
GAGCACCC	-0.0776
GGGGATAC	-0.0607
ACAGTTTA	0.108
CGCAACGC	-0.01
GCGCACAC	0.00745
CAGAGAAC	-0.0695
TTAGGGAA	-0.0525
AGGCACGA	-0.196
ATGAAAGC	0.0566
TCTCTACA	-0.0356
GCGGTCCC	-0.154
AGTCTGGA	-0.0149
AACAAACG	0.14
GCTTCCTA	-0.079
CCTCGATA	0.00614

Sequence	PBM E-score
AGTCAAAG	-0.117
ACGCACAA	0.072
AATGAAGG	-0.0327
ACGTGCCC	-0.0826
GCCGCCCA	0.0226
GACTGCCA	0.107
GGCTTTCA	0.0292
GTTTCACA	0.447
CGTTGGAG	-0.0815
CCTAGAGC	-0.189
CACGCCTA	-0.159
CGGATTAC	0.0808
AATACACC	0.208
CGACCTAG	-0.124
AGACTTCC	-0.108
GATCATAC	0.0216
AGGAATGG	-0.0752
ACCGCAAG	0.081
CTTTGTCA	-0.00195
GGCAGACA	0.0195
GCCCCAAA	0.00773
TCGCTTCA	0.0193
GCTTGAAA	0.198
GCGCTTCC	-0.0472
ATAACGTC	0.041

Sequence	PBM E-score
GCTCGGTA	-0.0567
AGCATAAC	-0.00864
TACGGATA	0.00564
GTCAGGGA	-0.0596
ATGTTCGA	0.0622
ATTGACTC	-0.0234
CACATATC	-0.00781
ATCTGAGA	0.0322
GATGACCA	-0.127
ATTCTACC	0.0724
CAAAATAA	0.33
ACGTCCTC	-0.172
AGATACGC	-0.00123
ACTTTATA	0.227
ACATGTGA	-0.0437
CAGGGTGG	0.08
CTGTTGAC	-0.174
ATACAAGC	0.184
CGACTGGC	-0.0341
AAACGACA	0.255
AGTATTGA	0.102
CCTCTGCG	-0.216
ACGTAAAG	0.0191
AAGATGGT	0.0337
ACAGGACT	-0.223

Sequence	PBM E-score
GATCAGGA	0.0285
GATAGATA	0.182
CTCCACCC	-0.0779
TGTGAAAA	0.216
ACATATAG	0.00266
AAGGAACT	0.0302
CGAATTGA	0.0366
GATTGCAC	-0.0646
AGCTACGA	-0.102
CATTCTCC	-0.157
TCCTTCAA	-0.0162
ACGATGTG	0.0886
TCCATCCA	-0.039
GTCGCTCA	-0.123
AAGGCGGG	0.0588
CTCAGCCC	-0.168
AGATCTGA	-0.00294
CCTAGTCC	-0.211
TCTGTACA	0.0387
CGCGTGTA	0.0551
CGATTTTC	0.247
ACGCGTCG	0.0699
CCGTTTCG	0.164
ACAGTTCG	0.079
AATTCGAC	-0.246

Sequence	PBM E-score
CGCACCGA	-0.0312
GATATCAC	0.0447
CGTTGCAC	-0.0662
CCACTGAC	-0.126
TGGACAAA	0.0459
ATTTATTA	0.292
TTTGAAAA	0.309
AATCAGAA	0.27
ATCTCCAT	0.0661
AATTTGAG	0.138
GGACTGAC	-0.0969
CACTGTCG	-0.186
GGCCAGCC	-0.0902
ACAAGCTC	0.0349
CGAAGGAC	-0.0697
ACCCCCCG	-0.17
ACTATTTC	0.0445
GACTAGTA	0.125
AGTGAGCA	-0.0953
ATCGAGAG	0.0528
CGACGCGC	0.173
CGAACCGC	0.144
TATCATAA	0.0742
AATGACGC	0.0343
GACGCGCA	0.0305

Sequence	PBM E-score
AACACCGG	0.197
CGAGGCGC	0.0766
AACCGGGG	-0.00779
AGGGGTAA	-0.0335
CCTGTAGC	-0.252
CTCTGGGC	-0.203
GCCTTAAC	-0.13
TACGATGA	-0.0696
ACCCTACC	-0.0406
CTTGTGCA	-0.184
AGAGCGTA	-0.143
GACGCACC	-0.00732
CGCTATCA	-0.0756
GGATCGAA	-0.0832
CAACCGTA	-0.184
AAATAGCG	0.0263
AAGCTGCC	0.00259
AATCCTCA	0.104
CAAAACTA	0.235
CACGAAAA	0.243
GATCCCTA	-0.128
GTCGGTGA	-0.188
ACCTTGTA	0.0127
CCCCTGTC	-0.0877
CCGTTTTC	0.133

Sequence	PBM E-score
ATAATATG	0.248
AGGCCTAA	-0.0544
AACTCCCA	0.118
ACACCTTG	0.0158
AGGTCCGG	-0.018
ACAGAACG	0.00036
GCTACCGA	-0.0832
CGCCTGCC	-0.0348
AAGTCCGC	-0.146
CTCCGCTA	-0.0696
GCAAATCA	0.126
ATATCGTC	0.00202
AACCTCTT	0.136
AACGCTAC	0.0235
AGGATCCA	-0.141
AAGCTCAT	-0.0461
CCTCACCC	0.00023
GCTCTCAC	-0.339
CCGAGAAC	-0.0321
ACGCTGCA	-0.119
AGCTTGGA	-0.203
ACAGGTCC	-0.187
